Data published in the supplement of paper PMC3334620.
Whole data set: some 33,000 sequences, median “E-score (-0.5 to 0.5)” near -0.043, cut for the highest 2% near 0.37. This is one part of the list.

Target: T1, Upc2 (UniProt Q12151)
T1 sequence: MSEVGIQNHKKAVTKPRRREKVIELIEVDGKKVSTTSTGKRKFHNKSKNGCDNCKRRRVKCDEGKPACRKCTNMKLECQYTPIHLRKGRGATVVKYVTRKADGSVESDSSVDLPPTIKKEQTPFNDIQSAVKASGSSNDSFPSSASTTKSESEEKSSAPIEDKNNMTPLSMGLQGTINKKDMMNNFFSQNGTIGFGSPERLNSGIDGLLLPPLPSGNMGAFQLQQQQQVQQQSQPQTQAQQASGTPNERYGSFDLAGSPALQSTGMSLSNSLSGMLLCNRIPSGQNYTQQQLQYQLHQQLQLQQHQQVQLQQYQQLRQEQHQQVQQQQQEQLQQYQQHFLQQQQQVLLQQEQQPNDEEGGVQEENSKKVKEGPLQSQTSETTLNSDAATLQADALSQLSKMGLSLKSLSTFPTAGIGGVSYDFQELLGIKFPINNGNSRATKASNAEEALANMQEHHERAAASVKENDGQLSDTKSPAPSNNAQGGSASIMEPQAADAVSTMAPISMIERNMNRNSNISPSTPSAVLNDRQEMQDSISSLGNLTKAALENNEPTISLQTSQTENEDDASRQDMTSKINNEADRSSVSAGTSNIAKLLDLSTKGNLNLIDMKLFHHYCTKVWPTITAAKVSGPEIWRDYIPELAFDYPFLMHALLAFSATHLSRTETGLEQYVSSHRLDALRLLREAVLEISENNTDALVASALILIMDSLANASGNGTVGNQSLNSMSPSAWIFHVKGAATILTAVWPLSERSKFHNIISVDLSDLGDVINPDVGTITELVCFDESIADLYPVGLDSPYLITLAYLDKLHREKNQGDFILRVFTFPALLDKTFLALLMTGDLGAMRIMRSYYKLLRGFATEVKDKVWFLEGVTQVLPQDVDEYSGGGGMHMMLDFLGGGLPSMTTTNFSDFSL
Assay: PBM E-score (8-mer binding enrichment) (E-score (-0.5 to 0.5)); higher = stronger / more preferred TF binding; most listed sequences are background and not binding sites
Conditions: protein concentration: 200 nM; construct: GST-full length
Procedure, shortened: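 Detection of bound protein used fluorescent anti-GST, with scans normalised by masliner. The proteins were GST-tagged yeast transcription factors applied at about 100-200 nM to universal all-10-mer Agilent arrays made double-stranded by primer extension. Each ungapped eight-base word, pooled with its reverse complement, was scored with an E-score from the Universal PBM Analysis Suite.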

Point of comparison: GGGCTAAA, “PBM E-score” value -0.0166. Against it:
- CGTAACAC — higher, 0.24
- CTTAGAGC — lower, -0.0646
- AGCTTCCA — lower, -0.211
- ACAGAGGT — lower, -0.0934
- AGAGGCAA — lower, -0.211
- GAGCAATC — higher, -0.00409
- GGAGGCCA — lower, -0.322
- ACCTTCTA — lower, -0.0736
- GCCCCATA — lower, -0.0711
- ACACGTAC — higher, 0.268
- CAACGGTC — higher, 0.0501
- AGAGGCGA — lower, -0.213
- CACCTACC — lower, -0.148
- CAGAAAAA — lower, -0.0281
- CGGGTTTA — higher, 0.16
- AGCGGGGA — lower, -0.225
- ACACCGCT — higher, 0.0197
- CATTCTAG — lower, -0.28
- ATCTCGAG — lower, -0.101
- GCTAGGAA — lower, -0.253
- CCTACGCG — higher, 0.0173
- AGTGCTCG — higher, 0.181
- CCAACAGA — lower, -0.111
- CACAGAGG — lower, -0.344
- GGACCTAC — higher, 0.0699
- ACACTTCG — higher, 0.103
- CCTGGCCG — lower, -0.147
- AAATTTCT — higher, 0.0462
- CCTATGCA — lower, -0.216
- CTCGTGAC — higher, 0.0385
- ACGACCAA — higher, 0.366
- AATTTAAA — higher, 0.13
- GCTTGGAA — higher, 0.159
- AGGTAATG — lower, -0.127
- GCAATTGA — lower, -0.0519
- TCATCCAA — lower, -0.0513
- AATGAACT — higher, 0.0533
- CTGTTAGC — lower, -0.142
- GCGGGAGA — lower, -0.21
- CGTGTTTA — higher, 0.166
- CGCGGACA — lower, -0.098
- CGCTTTAC — higher, 0.292
- AACGGGGA — higher, 0.299
- GCCAAGGA — lower, -0.287
- GCCTGCGA — lower, -0.302
- CAATCACC — higher, -0.00615
- AAGATGAC — lower, -0.181
- AGATTGAG — lower, -0.0883
- GGAAGTGA — lower, -0.0336
- CGCGCGCC — higher, 0.125
- CAAAACGC — lower, -0.079
- ACTAAATC — higher, 0.0151
- CAGTATAG — higher, 0.203
- AAAGATGA — lower, -0.0247
- CACACGGC — lower, -0.0308
- ATTAAGGG — lower, -0.233
- GACACCGC — higher, 0.0482
- CCGCAGAC — lower, -0.0903
- CGTTTTTC — higher, 0.115
- ATAAGTAC — higher, 0.142
- ACAGAGGC — higher, 0.0372
- CCAAGGCG — lower, -0.0754
- AATTAGGA — lower, -0.113
- AATTTTTA — higher, 0.0508
- AACACCCG — higher, 0.0683
- ACACCGCA — lower, -0.0497
- CCCGCAAG — lower, -0.239
- TGAGTGCA — lower, -0.0443
- AAGAAGGA — lower, -0.253
- GAGTCAAC — lower, -0.054
- AAGGATAT — lower, -0.13
- CTTCGACA — lower, -0.137
- AGAACGAT — higher, 0.342
- ACTAGTAG — higher, -0.00342
- ATGCGCAC — lower, -0.0492
- CACTCTTA — higher, -0.00132
- GACACCTC — higher, 0.108
- GCGTGTCA — lower, -0.163
- GCCCGGGC — lower, -0.128
- ACTCCAGA — higher, -0.0105
- CTTGAAAC — higher, 0.0822
- ACCCGTCT — lower, -0.0717
- ACGGAGAG — higher, 0.209
- TCCTCACA — lower, -0.169
- TACTAAAA — higher, 0.186
